# The whole screen tested about 310,000 compounds, of which about 2,200 (0.71%) showed an effect of 50% or more. Effects have a minus sign here. This is one part of the list.
# Molecular target: human ether-à-go-go-related gene (hERG) potassium channel (human, UniProt Q12809)
# Assay: primary screen, population patch clamp on CHO cells stably expressing hERG
# Chain of human ether-à-go-go-related gene (hERG) potassium channel (Q12809 whole entry, looked up): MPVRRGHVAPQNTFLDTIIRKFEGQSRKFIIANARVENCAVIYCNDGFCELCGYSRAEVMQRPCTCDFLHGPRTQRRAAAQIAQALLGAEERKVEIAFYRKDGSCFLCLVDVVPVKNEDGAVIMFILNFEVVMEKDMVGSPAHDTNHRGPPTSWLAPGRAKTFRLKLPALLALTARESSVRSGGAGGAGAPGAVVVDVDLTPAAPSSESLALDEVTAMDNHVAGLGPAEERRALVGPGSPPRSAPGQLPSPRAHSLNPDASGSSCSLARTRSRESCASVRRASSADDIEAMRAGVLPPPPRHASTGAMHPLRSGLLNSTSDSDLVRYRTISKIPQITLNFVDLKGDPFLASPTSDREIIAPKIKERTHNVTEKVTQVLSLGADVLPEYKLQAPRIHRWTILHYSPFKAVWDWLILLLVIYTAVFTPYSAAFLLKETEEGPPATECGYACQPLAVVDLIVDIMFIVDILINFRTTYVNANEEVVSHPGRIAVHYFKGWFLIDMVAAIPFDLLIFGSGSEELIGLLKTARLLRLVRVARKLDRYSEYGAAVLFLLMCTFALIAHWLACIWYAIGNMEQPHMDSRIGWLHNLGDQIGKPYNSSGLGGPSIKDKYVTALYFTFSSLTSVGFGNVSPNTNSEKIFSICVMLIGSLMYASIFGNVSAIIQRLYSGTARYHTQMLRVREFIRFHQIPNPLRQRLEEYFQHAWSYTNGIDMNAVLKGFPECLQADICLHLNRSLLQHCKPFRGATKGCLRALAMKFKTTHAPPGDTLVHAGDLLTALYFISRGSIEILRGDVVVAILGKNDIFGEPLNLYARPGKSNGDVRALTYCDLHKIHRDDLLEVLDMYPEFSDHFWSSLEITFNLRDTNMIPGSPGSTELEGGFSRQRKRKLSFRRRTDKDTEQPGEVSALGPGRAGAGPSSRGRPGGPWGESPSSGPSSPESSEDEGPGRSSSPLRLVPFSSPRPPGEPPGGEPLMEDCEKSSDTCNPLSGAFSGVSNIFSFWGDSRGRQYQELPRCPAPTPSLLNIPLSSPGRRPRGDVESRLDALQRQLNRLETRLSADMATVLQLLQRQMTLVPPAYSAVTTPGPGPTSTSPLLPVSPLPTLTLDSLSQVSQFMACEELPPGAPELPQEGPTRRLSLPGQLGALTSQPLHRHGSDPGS
row,Structure (SMILES),"hERG current change (%, negative = inhibition) at 1uM [%]"
1,COc1ccc([C@H]2CC(=O)C=C(c3cc(Cl)ccc3C)C2)cc1,12
2,S=C(NCCN1CCOCC1)Nc1ccccc1Cl,13.5
3,Cc1cccc(NP(C)(=O)c2nc3c(s2)CCCC3)c1 (centres unmarked),-2.39
4,O=C(N[C@@H](Cc1ccccc1)C(=O)OCc1ccccc1)c1nc[nH]c1C(=O)NC(c1ccccc1)c1ccccc1,16.8
5,O=C(NC1CCCC1)[C@@H]1CSC2c3ccccc3C(=O)N21 (some centres unmarked),13.4
6,COc1ccccc1C(=O)N/C(=C/c1ccco1)C(=O)Nc1cccc(C(=O)O)c1,0.909
7,COc1ccc2cc(C(=O)/C=C/c3cc(OC)c(O)c(OC)c3)ccc2c1,7.68
8,O=c1c2c3c(sc2n(CCN2CCCC2)c(=O)n1Cc1ccco1)CCCCC3,-67
9,CN1C(=O)CC(C(=O)O)SC1=Nc1cccc(C(F)(F)F)c1 (centres unmarked),4.93
10,OCC1CCCC(n2cnc3c(=S)nc[nH]c32)O1 (centres unmarked),13.5
11,Cc1cc(CNC(=O)CC2C(=O)NCCN2Cc2ccccc2C(F)(F)F)nn1C (centres unmarked),12.8
12,CCOC(=O)c1sc(NC(=O)Cn2nnc3sc4c(c3c2=O)CCCC4)nc1C,4.22
13,Cc1ccc(-c2cc(NC(=O)CCl)n(-c3ccccc3)n2)cc1,-3.27
14,O=C(CSc1nnc(Cc2ccccc2)o1)c1cc(F)ccc1F,12.7
15,Cn1cccc1/C=N/NC(=O)c1ccc[n+]([O-])c1,12.5
16,CCN(CC)C(=O)c1ccccc1NS(=O)(=O)c1ccc(OC)c(C(=O)N2CCOCC2)c1,10.3
17,CCOC(=O)C1(Cc2cccc(OC)c2)CCCN(C(=O)CSC)C1 (centres unmarked),4.79
18,O=C(O)CNC(=S)N(Cc1ccccc1)Cc1cccnc1,7.35
19,N#Cc1ccccc1NCC(=O)N1CCN(S(=O)(=O)c2ccccc2)CC1,7.24
20,O=C(NCc1ccc(F)cc1)C1CCCN1C(=O)Nc1cccc(F)c1 (centres unmarked),4.71
21,COc1ccc(NC(=O)C(C)N2CCN(C)CC2)cc1.O=C(O)C(=O)O (centres unmarked),5.43
22,O=C(NN1CCOCC1)c1ccc(Cl)cc1[N+](=O)[O-],12.8
23,COC(=O)[C@@H]1CCCN1Cc1c(C(=O)N2CCOCC2)nc2c(C)cccn12,11.8

row,Structure (SMILES),"hERG current change (%, negative = inhibition) at 1uM [%]"
1,Oc1ccc(NCc2cccc(OCc3ccc(F)cc3)c2)cc1,9.76
2,N#Cc1ccccc1CCN1C(=O)c2ccccc2C1=O,23.8
3,C=CCC1(NC(C)c2ccccc2)CCCCC1 (centres unmarked),7.87
4,Cc1cc(Cl)ccc1OCC(=O)NCCCN1CCOCC1,6.41
5,CCNc1nc(NCC)nc(SCCOC(=O)Nc2ccccc2)n1,-3.18
6,COc1ccc(NC(=O)CN(C)C(=O)c2cccc(S(=O)(=O)Nc3ccc(OC)cc3)c2)cc1,-9.32
7,COc1ccccc1C(=O)Nc1ccc2c(c1)CN(Cc1cnc(C)s1)CC2,5.48
8,CC(C)S(=O)(=O)C1=NSC2=NC(=O)/C(=C\c3ccc(OC(=O)c4ccco4)cc3)C(=N)N21,15.5
9,O=C1CCCC2=C1C(c1cccs1)n1nc(SCc3ccc(C(=O)O)cc3)nc1N2 (centres unmarked),12.8
10,O=C(COC(=O)CCN=C1NS(=O)(=O)c2ccccc21)NNC(=O)c1ccccc1,7.22
11,CCN(CC(=O)Nc1c(F)cccc1F)C(=O)/C=C/c1ccc(S(=O)(=O)N2CCCCCC2)cc1,5.73
12,Cc1cc(C(=O)NN)n[nH]1,10.6
13,CCn1cc([N+](=O)[O-])c(C(=O)N2N=C(c3cccc4ccccc34)CC2c2ccccc2O)n1 (centres unmarked),7.85
14,O=C(CCCn1c(=S)[nH]c2ccccc2c1=O)NC1CCCC1,9.53
15,O=[N+]([O-])c1ccc(-n2nnnc2CN2CCCCC2)cc1,5.88
16,COCCCNC(=O)Cn1cc(C(=O)C2CC2)c2ccccc21,-23.1
17,CCc1ccccc1NC(=O)NCc1cccnc1,9.55
18,CN(C)CCCOc1ccc2c(c1)Sc1ccccc1CC2=O.Cl,-53.3
19,COc1ccc(CCN=C(N)NS(=O)(=O)c2ccc(C)c(C)c2)cc1,5.94
20,O=C(Nc1cccc(Cl)c1Cl)C1CC(=O)N(c2ccc(Br)cc2)C1 (centres unmarked),13.2
21,N#C/C(=C\c1cccs1)C(=O)NCC1CCCO1 (centres unmarked),12.6
22,COCCCn1c(C(=O)NC2CCCCC2C)cc2c(=O)n3cccc(C)c3nc21 (centres unmarked),3.54
23,COc1ccc(C(=O)Nc2cccc(C(=O)O)c2)cc1S(=O)(=O)N1CCCC1,4.99

row,Structure (SMILES),"hERG current change (%, negative = inhibition) at 1uM [%]"
1,CN(c1ccc(O)cc1)c1nc(-c2cccs2)cs1,10.8
2,Cc1ccc(Cn2c(=N)n(CC(O)c3ccco3)c3ccccc32)cc1.Cl (centres unmarked),-40.7
3,O=C(Nc1nc2ccccc2[nH]1)c1ccccc1OC(F)F,13.5
4,COc1ccc(Nc2nc(N)nc(CN3CCN(c4ccccn4)CC3)n2)cc1,-37.1
5,COC(=O)c1ccccc1NC(=O)CN(c1ccccc1)S(=O)(=O)N(C)C,9.5
6,CC(OC(=O)c1ccc(=O)n(Cc2ccccc2)n1)C(=O)Nc1cccc(Cl)c1 (centres unmarked),1.51
7,CCC(CC)C1C(C#N)=C(N)Oc2cc(C)oc(=O)c21 (centres unmarked),5.65
8,CN(C)c1ccc(C(=O)NCC2CCCO2)cc1 (centres unmarked),8.38
9,CCOC(=O)N1CCc2c(sc(NC(C)=O)c2C(N)=O)C1,14.5
10,Cc1c(OC(C)C(=O)N[C@H](C(=O)O)c2ccccc2)ccc2c3c(c(=O)oc12)CCCC3 (some centres unmarked),9.47
11,COc1ccccc1/C=N/NC(=O)c1ccc(Cn2nc([N+](=O)[O-])cc2C)cc1,1.96
12,NC(=O)c1ccccc1N,10.4
13,N=c1n(CCOc2ccccc2)c2ccccc2n1CCN1CCOCC1,-10
14,CCc1cccc(C)c1NC(=S)N1CCCCC1c1cccnc1 (centres unmarked),9.32
15,Cc1cc(N/N=C/c2ccc(F)cc2)nc(NCc2ccccc2)n1,-2.72
16,CC(C)[C@@H](C(=O)NCc1ccco1)N1C(=O)N2CCc3c([nH]c4ccccc34)[C@@]2(C)C1=O,12.2
17,Cc1nc(CCN2C(=O)c3ccccc3C2=O)n[nH]1,0.67
18,CC(=O)c1cc(C(c2csc(C(C)=O)c2)c2csc(C(C)=O)c2)cs1,-3.91
19,CC1=C(C(=O)OCc2ccccc2)C(c2ccc(Cl)cc2Cl)NC(=O)N1CCCC(=O)O (centres unmarked),6.77
20,COc1ccc(OCc2nnc(NC(=O)Nc3ccccc3F)s2)cc1,2.36
21,O=C(Nc1nnc(C2CC2)s1)C1COc2ccccc2O1 (centres unmarked),19.2
22,CCc1ccc(NC(=O)CSc2nnc(COc3ccc4c(c3)CCCC4)o2)cc1,-9.93
23,CN1C(=O)C(=O)/C(=C(/O)c2ccc(Br)cc2)C1c1cccc([N+](=O)[O-])c1 (centres unmarked),13.5

row,Structure (SMILES),"hERG current change (%, negative = inhibition) at 1uM [%]"
1,COc1ccc(NP(=O)(Nc2ccc(OC)cc2)Oc2ccccc2)cc1,7.04
2,COc1ccccc1CNC(=O)[C@H](NC(=O)C1CCN(C(=O)[C@@H](N)CCSC)CC1)C(C)C,-0.151
3,CN(C)c1ccc(-c2nnn(Cc3ccccc3Br)n2)cc1,13.5
4,CCCC(C)c1nnc(NC(=O)C2CC(=O)N(CCc3ccc(F)cc3)C2)s1 (centres unmarked),-9.9
5,CCCn1c(=O)c2ccccc2n2c(SCCNCCO)nnc12.O=C(O)C(=O)O,14.5
6,Cc1ccc(NC(=O)CSc2nnc(-c3ccncc3)s2)cc1,9.27
7,CCc1ccc(N2C(=O)C3ON(c4ccccc4)C(c4ccco4)C3C2=O)cc1 (centres unmarked),6.8
8,CC(=O)C1C(=O)NC23CCCCC2C1c1ccccc1O3 (centres unmarked),7.91
9,Cc1ccc(/C=C/C(=O)N(Cc2cccs2)C2CCS(=O)(=O)C2)cc1 (centres unmarked),4.65
10,CCCCc1ccc(NC(=S)NCCO)cc1,7.16
11,Cc1sc2nc(CSc3ccccc3)nc(N3CCOCC3)c2c1C,9.62
12,c1cc2c3c(cccc3c1)C(N1CCOCC1)=N2,-0.83
13,COc1ccccc1NC(=O)CN1CCN(CC(=O)Nc2ccc3c(c2)OCCO3)CC1,-10.6
14,CC1(C)OC(=O)C(=NNc2ccc(C(=O)O)cc2)C(=O)O1,15
15,CC(C)(C)OC(=O)N1CCC(c2cc(-c3cccs3)n[nH]2)CC1,4.89
16,O=c1[nH]c(=O)n(Cc2ccc(F)cc2)c(O)c1C=NCCCn1ccnc1,15.6
17,O=C(CC1Oc2ccccc2NC1=O)NCCc1ccccc1 (centres unmarked),-2.36
18,CC(=O)c1ccc(OCc2cc(C(=O)N3CCN4CCCC4C3)no2)cc1 (centres unmarked),8.74
19,O=C(CSc1ccc2c(c1)OCCO2)Nc1ncccc1O,8.54
20,CCOc1ccc(N=NC2C(=O)N(C(N)=S)N=C2C)cc1 (centres unmarked),13.1

# — article PMC4336329 (PLoS ONE, 2015)
